# Measured values as given in paper PMC12040169 (PLOS Biology, 2025).
# This is one part of the list.
# Test system: T1, C. trachomatis L2/434/Bu expressing GFP (CTL2-GFP)
# T1 construct: L2/434/Bu GFP intracellular growth in HeLa cells
# Set-up: species or system HeLa; C. trachomatis total inclusion area by high-content imaging, normalised to DMSO
# Details: total inclusion area; 28.5 h, 10 µM; inhibitor
# Summary of the method: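 Host cell viability was gauged from Hoechst-stained nuclei counts, while chlamydial growth was taken from total inclusion area and inclusion number per well. Cells were fixed and imaged by high-content microscopy once bulk GFP and resorufin fluorescence had been measured.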
row,SMILES,% of control remaining
1,CCNC(=O)N1CC2(CCN(CC3COc4ccccc4O3)CC2)c2ccccc21 (stereo not drawn) [CBK143944],100.917
2,CCN1CCN(C(=O)CN(C)S(=O)(=O)c2ccc(Cl)cc2)CC1 [CBK267218],59.5255
3,O=c1[nH]c(=O)c2cc(S(=O)(=O)NCc3ccccc3CN3CCCC3)ccc2[nH]1 [CBK286395],80.6308
4,O=C(CSc1nnc(-c2ccc(F)cc2)n1-c1ccccc1)Nc1cccc2ccccc12 [CBK267592],86.1902
5,COc1ccc(C(=O)Nc2cc(C)c3c(=O)oc4ccccc4c3n2)c(OC)c1 [CBK291231],116.023
6,COC(=O)Nc1ccc2c(c1)N(C(=O)CCN1CCOCC1)c1ccccc1CC2 [CBK261284C],95.8109
7,C=CCn1c(SCC(=O)Nc2ccnc3ccccc23)nnc1-c1cccnc1 [CBK268723],81.3561
8,Cc1cc(=O)n2ccc(CN3CCOCC3)c(O)c2n1 [CBK262899C],91.9188
9,Cc1nc2c(C(=O)NCC3CCCO3)cnn2c(C)c1Cc1cccnc1 (stereo not drawn) [CBK162160],45.9935
10,CCN(CC)c1ccc(C(=O)Cn2c(=O)n(C(=O)c3cccc(S(C)(=O)=O)c3)c3ccccc32)cc1 [CBK106500],64.4532
11,CCn1c(C2CCN(C(=O)c3cc(C(F)(F)F)n[nH]3)CC2)nn(C)c1=O [CBK307184],62.4979
12,CCCOc1ccc(-c2cn(CC(=O)NN)cn2)cc1 [CBK261790],108.45
13,Cc1noc(C)c1C(=O)Nc1cnc(-c2cccc(C(F)(F)F)c2)c(-c2cccnc2)n1 [CBK036727],66.1272
14,N#CCC(=O)Nc1ccc(C(=O)N2CCN(c3ccccc3)CC2)cc1 [CBK306060],54.2529
15,Cc1cc2c(o1)CCc1sc(N(C)C(=O)C3CC(=O)N(C)C3)nc1-2 (stereo not drawn) [CBK283980],75.9855
16,Cc1cccc(-c2ncc(NC(=O)CCc3cccc(Cl)c3)nc2-c2cccnc2)c1 [CBK037201],75.9425
17,C[C@@H](Nc1cncc(-c2ccc(F)cc2F)n1)c1ccccc1 [CBK065676],69.887
18,O=C(c1coc2ccc(O)c(CN3CCCCC3)c12)C1CC1 [CBK263206C],101.767
19,COc1ccc(OC)c(CN(C(=O)c2oc3ccc(F)cc3c2C)c2cnn(C)c2)c1 [CBK298278],89.8197
20,O=[N+]([O-])c1ccc(CN(CCc2ccccc2)Cc2ccccc2)cc1 [CBK261866],98.9547
21,CC(NC(=O)c1cn(-c2ccccc2)nc1-c1cccnc1)c1ccccn1 (stereo not drawn) [CBK295660],112.945
